# From publication PMC6919601, “Identification of Plasmodium dipeptidyl aminopeptidase allosteric inhibitors by high throughput screening” (PLoS ONE, 2019)
# Several values for one entry are separate records, joined by “and”; a condition that tells them apart may be missing. Equal entries are not always repeated. The campaign covered roughly 110,000 compounds. About 230 (0.21%) showed an effect of 50% or more. Some of the results follow.
# Target: DPAP1 (Plasmodium falciparum, UniProt Q8IIJ9)
# Experiment: primary screen, percent inhibition; read by cleavage of a fluorogenic dipeptide substrate; higher = more effect of the substance
# Parameters: species or system P. falciparum D10 trophozoite lysates; single well
# Method: HTS was performed in black 384-well plates. The first and last two columns of each plate contained our negative (DMSO) and positive (10 μM JCP410) controls, and the 20 central columns the test compounds at 10 μM. Compounds were first diluted 50-fold into assay buffer (50 mM sodium acetate, 5 mM MgCl2, 10 mM β-mercaptoethanol, and 0.1% CHAPS, pH 5.5) from a 10 mM DMSO stock plates. One microliter of this 200 μM intermediate stock plate was dispensed into the assay plate. […] After 30 min, the reaction was quenched with 20 μL of 0.5 M acetic acid, and the fluorescent intensity measured at 523 nm (λex = 492 nm) using an Analyst HT multimode plate reader (Molecular Devices).
# 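Note: 30 min substrate incubation versus DMSO and 10 µM JCP410 controls.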
# Sequence of DPAP1 (Q8IIJ9 whole entry, looked up): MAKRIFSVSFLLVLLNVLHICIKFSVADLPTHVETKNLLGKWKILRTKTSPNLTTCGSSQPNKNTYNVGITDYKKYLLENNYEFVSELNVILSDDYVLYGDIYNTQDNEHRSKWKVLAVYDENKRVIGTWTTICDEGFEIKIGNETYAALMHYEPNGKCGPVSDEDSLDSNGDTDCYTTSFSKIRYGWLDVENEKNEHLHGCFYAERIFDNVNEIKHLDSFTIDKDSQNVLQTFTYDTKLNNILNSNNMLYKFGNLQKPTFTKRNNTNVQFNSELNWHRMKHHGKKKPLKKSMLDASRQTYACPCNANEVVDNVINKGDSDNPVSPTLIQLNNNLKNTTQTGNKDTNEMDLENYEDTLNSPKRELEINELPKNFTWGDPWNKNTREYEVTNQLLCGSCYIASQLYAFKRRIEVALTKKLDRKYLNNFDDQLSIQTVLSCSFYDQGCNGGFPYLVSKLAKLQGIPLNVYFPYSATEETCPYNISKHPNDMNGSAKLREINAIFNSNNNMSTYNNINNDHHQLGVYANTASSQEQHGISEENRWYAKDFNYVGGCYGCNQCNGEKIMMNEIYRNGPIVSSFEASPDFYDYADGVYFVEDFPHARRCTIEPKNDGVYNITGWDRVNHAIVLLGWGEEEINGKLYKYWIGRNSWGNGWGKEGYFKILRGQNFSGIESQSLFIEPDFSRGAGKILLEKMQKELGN
row,SMILES,% Inhibition @ 10 uM
1,O=C(c1ccccc1)N1CN(C2CCCCC2)Cc2c1sc1c2CCCC1,-0.446%
2,CCc1ccc(C2=CC(c3cccc(OC)c3)n3nnnc3N2)cc1 (centres unmarked),4.86%
3,Cc1ccc(C(=O)C2=C(O)C(=O)N(Cc3cccnc3)C2c2cccnc2)cc1 (centres unmarked),2.17%
4,CCC(C)(C)C1CCc2c(sc(NC(=O)C(C)(C)C)c2C(N)=O)C1 (centres unmarked),0.605%
5,CC1CC(C)CN(C2CC(=O)N(c3ccccc3)C2=O)C1 (centres unmarked),-4.4%
6,O=C(COc1nsnc1N1CCOCC1)NCc1ccc(F)cc1,-0.222%
7,Cn1c(=O)[nH]c(=O)c2c1nc(NC1CCCCC1)n2CC(O)COc1ccc(Cl)cc1 (centres unmarked),0.924%
8,CCOC(=O)c1c(NC(=O)C(F)(OC)C(F)(F)F)sc(-c2ccccc2)c1C (centres unmarked),2.18%
9,N=C(NOC(=O)C(F)(F)F)c1nonc1NC(=O)C(F)(F)F,-1.82%
10,O=C(Nc1cc(Cl)c(Cl)cc1Cl)c1ccc(Cl)cc1,-3.94%
11,Cc1ccc(C(=O)Nc2ccccc2O)cc1N1C(=O)c2ccccc2C1=O,-6.81%
12,COc1ccc(NCc2ccc(Cl)cc2Cl)cc1OC,2.94%
13,CN1CCN(c2nc(-c3ccccc3)cc(C(F)(F)F)n2)CC1,-0.503%
14,Nc1cc(C(=O)O)cc2c1Sc1ccccc1O2,-12.6%
15,COc1ccc2c(C)c(C(=O)O)oc2c1OC,-4.61%
16,COc1ccc2c3c(c[n+](C)c2c1)sc1ccc(F)cc13,-1.64%
17,Cc1nc2c(c(C)nn2C(C)(C)C)c(C)c1CCC(=O)NC(C)c1ccc2c(c1)OCCO2 (centres unmarked),-4.24%
18,O=C(CSc1nnc(COc2ccccc2Cl)o1)Nc1nc(-c2ccccc2)cs1,4.18%
19,CC(Oc1cccc(Cl)c1)C(=O)Nc1ccc(S(N)(=O)=O)cc1 (centres unmarked),0.147%
20,CC(C)N1C(C)CC(O)N1C(=O)c1ccncc1 (centres unmarked),-4.98%
21,CC1(C)CC(=O)c2cnn(-c3ccc(C(F)(F)F)cc3)c2C1,-2.63%
22,COc1ccc(C2Nc3ccccc3C(=O)N2Cc2ccccc2)c(O)c1 (centres unmarked),0.431%

row,SMILES,% Inhibition @ 10 uM
1,O=C(Nc1ccccc1Br)c1ccco1,-1.86%
2,O=C(NCCCN1CCOCC1)C1c2ccccc2Oc2ccccc21,0.222%
3,Cc1c(C(=O)NCc2cccnc2)oc2ccc(S(=O)(=O)N3CCCCCC3)cc12,0.287%
4,COc1ccc(C(=O)N2CCN(c3ccc(F)cc3)CC2)c(OC)c1,-3.39%
5,COc1ccccc1CNC(=O)CSc1nc(-c2ccco2)cc(C(F)(F)F)n1,0.778%
6,COc1cccc(CN2CCN(Cc3ccc(C)cc3)CC2)c1OC,-8.37%
7,c1ccc(CC2=NCCn3cccc32)cc1,-1.82%
8,Cc1nnc(N2CCC(C(=O)N3CCN(C)CC3)CC2)c2nn(-c3ccc(Cl)cc3)c(C)c12,-1.77%
9,Cc1ccccc1NC(=O)c1cccc(N2C(=O)c3ccc(C(=O)O)cc3C2=O)c1,-1.17%
10,CC1(C)C(C=C(Cl)Cl)C1C(=O)NCCc1ccccc1 (centres unmarked),-0.615%
11,Cc1cccnc1NC(=O)C(CC(C)C)N1Cc2ccccc2C1=O (centres unmarked),-0.501%
12,O=P(O)(c1ccccc1)c1nccn1Cc1ccccc1,-2.15% and -1.77%
13,Nc1cc(-c2ccc(Cl)cc2)nn1S(=O)(=O)Cc1ccccc1,1.15%
14,CC(C)NS(=O)(=O)c1ccc(OCC(=O)NC(C)(C)C)cc1,-0.318%
15,N#C/C(=C\c1ccc(O)cc1)C(=O)NCc1cccnc1,17.3%
16,CCCCc1ccc(C(=O)O)c(C(=O)O)c1C,3.25%
17,COc1cc(CN2CCc3ccccc3C2)cc(Br)c1O,4.04%
18,O=C(CCc1nnc2ccc(N3CCOCC3)nn12)NCCC1=CCCCC1,3.25%
19,CCOC(=O)c1sc(NC(=O)COc2ccccc2OC)c(C(=O)OCC)c1C,12.3%
20,c1ccc2cc(N3CCCCC3)ncc2c1,0.751%
21,Cc1cc(=O)oc(C)c1C(=O)NCC1COc2ccccc2O1 (centres unmarked),-0.733%
22,O=C(Cn1cnc2c(nc3n2CCCCC3)c1=O)NCC1CCCO1 (centres unmarked),10.6%

row,SMILES,% Inhibition @ 10 uM
1,CCOc1ccc(NC(=O)COc2ccc(OC)cc2)cc1,-4.06%
2,COc1cccc(C(=O)Nc2nc3ccccc3s2)c1OC,0.889%
3,O=C1N/C(=C/c2ccccc2Br)C(=O)N1Cc1ccc(F)cc1,-3.72%
4,Oc1oc(-c2cccc3ccccc23)nc1/C=N/c1nc2ccccc2s1,6.56%
5,COc1ccc(C(=O)Nc2sc3c(c2CN(C)C)CCCC3)cc1,-3.98%
6,CC1(C)CC(=O)C(C(C2=C(O)CC(C)(C)CC2=O)c2cc(Br)cc(C(C)(C)C)c2O)C(=O)C1 (centres unmarked),10.6%
7,CC(NC(=O)NCCCCCCNC(=O)NC(C)c1ccccc1)c1ccccc1 (centres unmarked),-1.9%
8,CCN(CC)C(=O)CN(c1ccc(Oc2ccccc2)cc1)S(C)(=O)=O,3.46%
9,COc1ccc(CN2CCC3(C=Cc4ccccc43)CC2)cc1C,-1.64%
10,CCOC(=O)c1cc(-c2ccc(F)cc2)n(CC(=O)NCCOC)c1C,4.61%
11,Cc1ccc(OCC(O)CN2CCOCC2)cc1C (centres unmarked),-0.414%
12,C=CCn1c(-c2ccccc2)cs/c1=N\c1cccc(O)c1,-6.37%
13,c1ccc(-c2nn3c(Cn4nnc5ccccc54)nnc3s2)cc1,4.47%
14,CC(C)(C)NC(=O)c1ccccc1Cl,-0.48%
15,Cc1cccc(N2CCN(Cc3cccc([N+](=O)[O-])c3)CC2)c1C,-3.71%
16,CCOC(=O)N1CCN(C(=O)C2CC(c3cn(CC)nc3C)=NO2)CC1 (centres unmarked),-3.08%
17,CCOC(=O)C1=C(c2ccccc2)Nc2ncnn2C1c1ccc(Cl)cc1Cl (centres unmarked),-5.01%
18,CCCN1CCN(C(=O)c2cc3c(-c4ccc(OC)c(OC)c4)nn(C)c3s2)CC1,-2.29%
19,COc1ccc(C2c3c(oc4cc(C)cc(C)c4c3=O)C(=O)N2CCO)cc1OC (centres unmarked),1.67%
20,CCOC(=O)N1CCN(C(=O)CS(=O)Cc2nc(-c3ccc(OC)cc3)oc2C)CC1 (centres unmarked),2.37%
21,Cc1ccc(C(=O)Nc2ccc(S(=O)(=O)Nc3ncccn3)cc2)cc1,-7.89%
